# Over roughly 33,000 sequences, “E-score (-0.5 to 0.5)” has its median near -0.016; the highest 2% begin near 0.32. Some of the results follow.
# Target: T1, Stp1 (UniProt B3LFK1)
# T1 sequence: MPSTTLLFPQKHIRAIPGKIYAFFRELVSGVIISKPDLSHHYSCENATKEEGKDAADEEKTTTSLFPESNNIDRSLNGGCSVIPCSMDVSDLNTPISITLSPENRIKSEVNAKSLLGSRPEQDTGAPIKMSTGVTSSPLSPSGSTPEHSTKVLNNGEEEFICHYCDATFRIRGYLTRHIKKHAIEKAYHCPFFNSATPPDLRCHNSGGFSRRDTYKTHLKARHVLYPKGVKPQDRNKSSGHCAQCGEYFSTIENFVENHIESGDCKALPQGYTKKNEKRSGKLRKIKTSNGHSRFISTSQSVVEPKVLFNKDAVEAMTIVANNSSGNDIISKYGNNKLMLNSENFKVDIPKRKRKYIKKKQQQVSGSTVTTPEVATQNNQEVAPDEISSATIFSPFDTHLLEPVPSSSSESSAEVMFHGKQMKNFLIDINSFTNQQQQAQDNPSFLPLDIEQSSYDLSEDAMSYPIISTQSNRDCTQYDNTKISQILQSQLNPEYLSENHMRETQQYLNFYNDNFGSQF
# Assay: PBM E-score (8-mer binding enrichment) (E-score (-0.5 to 0.5)); higher = stronger / more preferred TF binding; most listed sequences are background and not binding sites
# Conditions: protein concentration: 200 nM; construct: GST-full length
# Outline: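 Each ungapped eight-base word and its reverse complement, pooled, received an E-score from the Universal PBM Analysis Suite. Underlying scans, normalised with masliner, recorded fluorescent anti-GST bound to GST-tagged yeast transcription factors. These were applied at about 100-200 nM to universal all-10-mer Agilent arrays double-stranded by primer extension.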
row,Sequence,PBM E-score
1,TGTTTGAA,0.132
2,GGGGGTCA,-0.369
3,CGGGTGCC,0.161
4,CTTGACCA,-0.0647
5,CGCGTTGC,0.173
6,AGTTTTAC,0.0396
7,ATGGCACC,0.118
8,GTTCCGTA,0.0809
9,ACTAGAAG,0.00154
10,AGGATGCG,-0.0194
11,AGGAAGTA,-0.0959
12,CTCCCCGC,0.101
13,AAAAAGAT,0.052
14,CCTAACGA,-0.0115
15,AACATGCG,0.113
16,CGGCTAAA,0.252
17,GACGCGTC,-0.119
18,AAAAGGGA,-0.114
19,AAACACTA,0.092
20,GTATACCA,0.0622
21,ACAAAGTA,0.0943
22,AGTACATC,-0.105
23,AACACACC,0.062
24,ATATTGCC,0.221
25,CGACAGTA,-0.0982

row,Sequence,PBM E-score
1,AGGCGCCC,0.232
2,ACCTCTAG,-0.162
3,AAAGTAAC,0.11
4,GGCGCAAC,0.268
5,AGTGAATA,0.101
6,AGTAATAC,-0.0623
7,CGGCTGGA,0.145
8,ACGCCCAA,-0.0651
9,CAAGCTCC,-0.275
10,AACTGTGC,-0.00183
11,CCCACGGG,-0.166
12,AAGTGAGT,-0.17
13,CGGTAAGA,0.0116
14,ACCAGTGC,-0.172
15,GTGCACTA,0.0907
16,CACTAGTC,-0.25
17,GCTGTCAA,0.0202
18,AAGGAAGG,-0.0458
19,TCAGAACA,-0.0275
20,ATCACCGA,0.0107
21,ATAGACCA,-0.156
22,TCCCCAGA,-0.381
23,GCGAGTAA,0.174
24,TAAGTATA,0.174
25,GGCACCAC,0.324

row,Sequence,PBM E-score
1,AATTCCCT,-0.0839
2,CATTGCGC,0.0607
3,ATCGAGCG,0.183
4,ACCCTGGA,-0.419
5,AGGGCAGA,-0.239
6,TCTACCAA,-0.0725
7,CGAACCAG,0.0261
8,GGTTGTTA,0.0915
9,AATGCAAT,-0.0534
10,CCCTGTCA,-0.12
11,GGGAACGA,-0.117
12,AGTCTTCG,-0.0547
13,CCAGTCGA,-0.0258
14,AATCGGAT,0.111
15,ACGGTTGA,-0.11
16,AGTACCCG,-0.00067
17,CAAAGGTC,-0.257
18,AAAATTCA,0.238
19,GATCTACA,0.0609
20,ACAGACCT,-0.0316
21,GGGTTGGA,-0.0925
22,CATCAAAC,0.15
23,CAGTGGGA,-0.227
24,GACTGGAA,-0.0872
25,AACTCTCA,-0.0474

row,Sequence,PBM E-score
1,CTCCTGGC,-0.049
2,AGTAAGAT,0.136
3,AAATAGTG,0.0769
4,CCCACAAA,0.158
5,CGGAGAAG,-0.147
6,CTTACGGA,-0.295
7,CCTGATAC,0.128
8,GAGCGGCC,0.156
9,ACAAGCGA,-0.189
10,AAAATAGT,-0.00722
11,AGCCCAAG,-0.0659
12,ATCTCGTC,-0.0103
13,CCACTGCG,0.0474
14,CAGTGTTC,0.0466
15,AAATCTGT,0.0379
16,ATGTTCGC,-0.142
17,AAAGCGGT,-0.0888
18,AGGTCCAC,-0.179
19,ACTTAACG,0.00243
20,CACGCTGC,-0.121
21,GATCTCTA,-0.0861
22,CCTTCGAC,-0.184
23,CAAGAGGC,0.231
24,ACACCTAG,-0.139
25,CGGCACGA,0.459

row,Sequence,PBM E-score
1,CTGCTCTA,-0.037
2,ATAGATGG,-0.0898
3,GCGTGCTA,-0.176
4,CATGTTCC,-0.0941
5,CACCTATG,-0.108
6,ACCTGTCA,-0.0576
7,AAATCTAC,0.0829
8,GCTGCCTA,-0.0568
9,ACGGGTGC,0.105
10,GCTTGTGA,-0.068
11,CCAGTCTA,-0.186
12,CGGTAGTA,-0.00143
13,CAATTATA,-0.0185
14,CGCCTTTA,0.129
15,AACAGTCT,-0.242
16,AATTTTCT,0.0398
17,GATCTAAC,-0.104
18,CGTCAGCA,-0.0954
19,AGTACTCC,-0.234
20,ACACGGGC,0.0838
21,AATATATG,0.158
22,CGCCGAGA,-0.0302
23,AAAGGGCG,0.248
24,TACGCCAA,-0.104
25,CCCGCCAC,-0.0792

row,Sequence,PBM E-score
1,CTTCGTCA,0.107
2,CGATACAC,0.00016
3,ACACTGAC,-0.168
4,AACAAAGT,0.177
5,CCCGATTC,0.0613
6,ATAAATCC,0.0719
7,ATTTGAAC,0.107
8,CCCCGGTC,-0.309
9,CGCTCTGA,-0.095
10,ACGAAGAC,-0.104
11,GATCCATC,-0.109
12,CATTGGGA,-0.258
13,AATCAATA,0.293
14,ACCGTTCG,0.0794
15,CGTGGCTA,0.0439
16,CATCAGCA,-0.0551
17,ATCATTAA,0.145
18,ACAGCGAA,0.0628
19,TGAGAGCA,-0.112
20,TGCCCCCA,-0.202
21,CCAGTTGC,0.00923
22,AACGAACC,0.117
23,TACAGTCA,0.0313
24,CCCCTCCG,-0.288
25,AAGTGTTG,0.0173

row,Sequence,PBM E-score
1,AACCAATA,0.0694
2,GTACGAAC,0.282
3,GCAGAACA,-0.00078
4,AGGTCTCG,-0.226
5,GTTTCGAA,0.238
6,AGCCCCCA,-0.365
7,TCCTTGCA,-0.0871
8,ACGAATAA,0.102
9,GCCGGGCC,-0.0641
10,GGGCCTTA,-0.0714
11,GACCAGAA,0.0144
12,ACCAACCG,-0.167
13,GCGAGGCC,0.0547
14,AGGGACAA,-0.0293
15,ACCCCCTA,-0.39
16,GTAAAGGA,0.00792
17,CACTTGAG,-0.0776
18,TCCGTGAA,0.0172
19,CTACTGGA,-0.137
20,AGCGAACA,0.0778
21,ACGATCGC,0.189
22,ATGTCAGA,-0.0262
